The results in this text go back to PubChem BioAssay AID1240 (Sanford-Burnham Center for Chemical Genomics, 2008).

The whole screen tested about 50,000 compounds, of which about 800 (1.6%) showed an effect of 50% or more. This is one part of the list.

In the experiment the target is Bcl-2-like protein 10 (Homo sapiens) (UniProt Q9HD36). The experiment can be described thus: TR3 peptide-Bcl-B binding displacers, biochemical primary FP assay, phenotype converters (AID 1240).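 Note: 0% = Bcl-B with tracer peptide and DMSO and 100% = tracer peptide lacking Bcl-B.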 To be noted: GST-Bcl-B / FITC-TR3 peptide fluorescence polarization; stronger effect = higher value; compound at 3.75 mg/L. A general note: Fluorescence polarisation rises when a labelled molecule tumbles more slowly, as on binding a larger partner.
Sequence of UniProt Q9HD36 (Q9HD36 whole entry, looked up): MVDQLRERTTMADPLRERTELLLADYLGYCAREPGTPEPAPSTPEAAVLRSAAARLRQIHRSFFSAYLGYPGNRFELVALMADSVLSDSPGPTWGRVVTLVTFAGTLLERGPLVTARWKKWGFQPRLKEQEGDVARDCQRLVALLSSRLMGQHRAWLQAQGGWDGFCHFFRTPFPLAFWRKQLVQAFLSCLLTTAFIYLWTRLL
Regarding `COc1ccccc1N1CCN(C(=O)Cn2cnc3c2c(=O)n(C)c(=O)n3C)CC1`, the displacement amounted to 6.8%.
Under `NC(=O)CCC(NC(=O)c1ccc(-c2ccccc2)cc1)C(=O)O` (stereo unspecified) stands 5%; under `COC(=O)c1cc(C(=O)NCC2CCCO2)cc([N+](=O)[O-])c1` (stereo unspecified), -23.7%; under `Cc1cccc(-c2noc(-c3ccc(Br)cc3)n2)c1`, -1.7%.
In the case of `Cc1cc(OCC(=O)Nc2ccccc2CO)ccc1Br` it was 10.1%; in that of `CCCC(=O)Nc1ccc(-c2nc3cc(C)c(C)cc3o2)cc1`, 14.7%; in that of `Cc1cc(C)cc(OCC(=O)Nc2ccc(C)cc2Br)c1`, 4.3%.
In the case of `CCc1ccc(C(C)NC(=O)c2ccccc2)cc1` (stereo unspecified) it was 5.1%.
As to `CCOc1ccc2oc(C)c(C(=O)OC(C)C)c2c1`, the displacement came out at 12.2%.
Regarding `Cc1nccn1S(=O)(=O)c1ccc(Br)cc1`, the displacement was 13.2%.
Under `Cc1ccc(CC2C(=O)N(c3ccc(I)cc3)C(=O)C2C)cc1` (stereo unspecified) stands 5%; under `O=C(COc1ccc(Cl)cc1Cl)N1CCN(c2ccccc2)CC1`, -12.2%.
`Cc1cc(-c2ccc(C)o2)c(C#N)c(=S)[nH]1`: the displacement stood at 17.7%.
As to `O=C(O)/C=C/c1ccc(-c2ccccc2Cl)o1`, the displacement was determined as 5.8%.
Under `Cc1ccnc(NC(=O)c2sc3ccccc3c2Cl)c1` stands 8.5%.
In the case of `COc1ccc(CNC(=O)CN(c2ccccc2OC)S(=O)(=O)c2ccccc2)cc1` it was 17%; in that of `Cc1ccc(C)c(S(=O)(=O)n2nnc3ccccc32)c1`, 4.5%; in that of `O=C(Cn1cc(/C=c2/sc3nc4ccccc4n3c2=O)c2ccccc21)Nc1ccccc1`, 41.9%.
Take `COc1cc(NC(C)=O)ccc1NC(=O)c1ccco1`: the displacement amounted to 10.5%.
In the case of `O=C1c2ccc([N+](=O)[O-])cc2C(=O)N1Cc1ccccc1` it was 0.3%; in that of `COC(=O)c1ccccc1NC(=O)CN(c1ccc(Br)cc1)S(C)(=O)=O`, 5.9%.
Under `O=C(CSc1nc2ccccc2s1)OCC(=O)c1ccc(Cl)cc1` stands 5%.
Under `O=C1CCC(=O)N1CNc1ccc(Oc2ccccc2)cc1` stands 3.3%.
`COC(=O)c1ccc(OCc2cc(C(=O)OC)oc2C)cc1`: the displacement was determined as 4.7%.
In the case of `Cc1cccc(N2C(=O)CSC23C(=O)Nc2ccccc23)c1` (stereo unspecified) it was 6.2%.
In the case of `CC(=O)Nc1ccc(S(=O)(=O)N/N=C/c2ccco2)cc1` it was 11.4%.
Under `CCOC(=O)C1=C(O)/C(=C/c2cccc([N+](=O)[O-])c2)SC1=Nc1cccc2ccccc12` stands -8.7%.
`COc1cc(NC(=O)c2cc([N+](=O)[O-])ccc2N2CCCCCC2)c2ncccc2c1`: the displacement is 15.6%.
In the case of `CC(=O)c1ccc2c3c(onc13)-c1ccccc1C2=O` it was 2.4%; in that of `Cc1nc(=O)c(-c2ccccc2)c(C)n1-c1ccc(OCC(=O)O)cc1`, 0.5%; in that of `COc1ccc(-c2cc(O)c3c(C)oc(C)c3c(=O)c2)cc1OC`, 13.8%.
In the case of `CCOc1ccc(N(CC(=O)Nc2ccc(C)cc2)S(C)(=O)=O)cc1` it was -6.2%; in that of `Cc1cc(=O)n2[nH]c(C)c(-c3ccccc3)c2n1`, 0%; in that of `Cc1cccc(-n2c(C)cc(C=C(C#N)C#N)c2C)c1`, 1.5%.
Under `Cc1ccc(/C=C/C(=O)NCc2ccc(F)cc2)cc1` stands -3.1%.
As to `O=C(CC1S/C(=N\N=C\c2cccs2)NC1=O)Nc1ccc(Cl)c(Cl)c1` (stereo unspecified), the displacement was 7.8%.
In the case of `C=CCOc1ccc(/C=C2\C(=O)NC(=O)N(c3ccc(Cl)cc3)C2=O)cc1OC` it was 22.1%.
On to `CCN(CC)C(=O)CN(c1cccc(C(F)(F)F)c1)S(C)(=O)=O`, for which the displacement is 3.3%.
In the case of `C=CCCCC(=O)Nc1ccc(Cl)cc1Cl` it was 10.7%; in that of `Cc1ccc([N+](=O)[O-])cc1NC(=O)C(C)Oc1ccccc1` (stereo unspecified), -1.7%.
Under `CSC1=C(C#N)C(c2ccncc2)C(C(=O)Nc2ccccc2)=C(C)N1` (stereo unspecified) stands -2.9%; under `Cc1ccc(CN2CCN(CCNC(=O)C(=O)Nc3ccc(F)cc3)CC2)cc1`, 5.2%.
In the case of `CCOC(=O)C1=C(C)NC(=S)NC1c1cccc2ccccc12` (stereo unspecified) it was -5%.
As to `Cc1ccc(S(=O)(=O)N(c2ccccc2)C2C=CS(=O)(=O)C2)cc1` (stereo unspecified), the displacement was -8.1%.
For the compound `COC(=O)c1ccccc1NC(=O)COc1ccc(C)c(C)c1`, the displacement worked out at 1.3%.
In the case of `O=C(Nc1ccccc1-c1ccccc1)c1ccc(I)cc1` it was 8.3%; in that of `Cc1nn(C(=O)c2ccc(F)cc2)c(C)c1Sc1ccccc1`, 0.6%.
In the case of `COc1cccc(C(=O)Nc2ccc(OC(F)(F)F)cc2)c1` it was 10.2%.
Take `CCO/C(C)=C1\C(=O)N(CC)c2ccccc21`: the displacement was determined as 9%.
In the case of `Cc1cc(-c2ccc(NC(=O)c3cccs3)c(C)c2)ccc1NC(=O)c1cccs1` it was 6.6%.
Under `CCc1cc2c(N/N=C\c3ccc([N+](=O)[O-])o3)ncnc2s1` stands -4.6%.
Under `CCCCOc1ccc(NC(=O)COc2cccc(C)c2C)cc1` stands 1.2%.
In the case of `COc1cccc(NC(=O)C2C(C(=O)O)C3C=CC2C32CC2)c1` (stereo unspecified), the displacement is -7.1%.
In the case of `O=C(Nc1ccccc1)Nc1ccc(C(=O)N2CCOCC2)cc1` it was -59.6%; in that of `NNC(=O)Cc1ccc(C(F)(F)F)cc1[N+](=O)[O-]`, -6.5%; in that of `O=C(c1ccc(Br)o1)N1CCCCCC1`, -3.9%.
In the case of `Cc1n[nH]c(C)c1CCC(=O)N/N=C/c1ccc(Cl)cc1Cl` it was -1.5%; in that of `O=C(/C=C\c1ccccc1)Nc1ccc(NC(=O)c2ccco2)cc1`, 9.7%; in that of `COc1ccc(N(CC(=O)NCCc2ccccc2)S(C)(=O)=O)cc1`, 3.5%.
For the compound `Cc1cc(OCC(=O)Nc2ccc(Br)cn2)cc(C)c1Cl`, the displacement turned out to be 5.4%.
In the case of `CCOC(=O)c1c(NC(=O)c2cccs2)sc2c1CCC(C)C2` (stereo unspecified) it was 8.4%.
As to `COc1cccc(C(=O)Nc2ccc(-c3cnc(-c4ccc(NC(=O)c5cccc(OC)c5)cc4)nc3)cc2)c1`, the displacement came out at 8.7%.
With `Cc1ccc(S(=O)(=O)Nc2c(C)c(Cl)c(O)c(Cl)c2C)cc1`, the displacement amounted to 9.8%.
Under `CCC(=O)c1ccc(OCC(O)CN2CCCC2)c(OC)c1` (stereo unspecified) stands -2.6%.
As to `Cc1cccc2c(Nc3ccc(S(N)(=O)=O)cc3)c3ccc([N+](=O)[O-])cc3nc12`, the displacement was -9.3%.
Under `COc1cc(OC)cc(C(=O)N2CCN(C(=O)C(c3ccccc3)c3ccccc3)CC2)c1` stands -16.2%; under `CS(=O)(=O)N(Cc1ccc(C(=O)N[C@@H]2CCCC[C@H]2O)cc1)c1ccccc1`, -5%.
Under `Cc1ccccc1C(=O)NN1CCOCC1` stands 4.4%; under `CCOc1ccccc1N1CCN(C(=O)C(F)(F)F)CC1`, 6.1%; under `Cc1cccc(NC(=O)C2CCCC2)n1`, -0.1%.
Under `C[n+]1cn(Cc2ccccc2)c2c(=O)[nH]c(N)nc21` stands 4.4%; under `CCOc1ccc(NC(=O)c2cc(Cl)ccc2[N+](=O)[O-])cc1`, 7.8%.
With `COC(=O)c1cn(C(=O)c2ccc(-c3ccccc3)cc2)c2ccccc12`, the displacement was -0.2%.
Under `CCOc1ccccc1NC(=O)c1cc(C(=O)OC)cc([N+](=O)[O-])c1` stands -7.1%.
Under `COc1ccc(Cl)cc1NS(=O)(=O)c1cccc([N+](=O)[O-])c1` stands 72.8%; under `COc1ccc(C2/C(=C(\O)c3ccccc3)C(=O)C(=O)N2CCCC(=O)O)cc1` (stereo unspecified), -9.5%; under `COc1ccc(CNCc2cc(OC)c(O)c(OC)c2)cc1`, -13.3%.
Under `Cc1ccc(NC(=O)c2ccc(-c3ccc(Cl)cc3)o2)c([N+](=O)[O-])c1` stands 9%; under `O=c1c(-c2ccccc2)coc2c(CN3CCCCCC3)c(O)ccc12`, -11.5%; under `O=C(Nc1ccc([N+](=O)[O-])cn1)C(c1ccccc1)c1ccccc1`, 14.5%.
Take `O=C(O)CN1C(=O)S/C(=C\c2ccccc2O)C1=O`: the displacement was -6%.
Under `COc1ccc(N2C(=O)C3ON(c4ccccc4)C(c4ccncc4)C3C2=O)cc1` (stereo unspecified) stands -5.7%.
In the case of `CCOc1cc(/C=N/N=C(N)N)ccc1OCc1ccccc1` it was 8.4%.
Under `O=C1OC(c2cccc(Cl)c2)=N/C1=C\c1ccc(OC(=O)c2cccc([N+](=O)[O-])c2)cc1` stands 71.9%.
In the case of `CC(=O)Nc1ccc(-c2nc(-c3ccccc3)c(-c3ccccc3)[nH]2)cc1`, the displacement was -1.3%.
Under `Cc1nc(SCN2C(=O)c3ccccc3C2=O)n[nH]1` stands 16.5%.
On to `CC1CC(Nc2ccccc2)c2ccccc2N1C(=O)c1cccc(Br)c1` (stereo unspecified), for which the displacement stood at 5.6%.
On to `Cc1cc(/C=N/NC(=O)CC#N)c(C)n1-c1ccc(F)cc1`, for which the displacement is -2.9%.
In the case of `CC1(C)Cc2c(sc3nc(CC(N)=O)n(Cc4ccccc4)c(=O)c23)CO1` it was -6.5%; in that of `COc1cc(/C=C2\C(=O)NN(c3ccccc3)C2=O)cc(Br)c1OCC(=O)O`, 10.3%; in that of `CC(C)NC(=O)COc1cccc(Cl)c1`, -4.6%.
Under `O=C(O)c1ccc(-c2nc(-c3ccccc3)c(-c3cccs3)[nH]2)cc1` stands -18.6%; under `COc1ccc(N=C2SC(C(=O)N3CCN(c4ccc(F)cc4)CC3)CC(=O)N2C)cc1` (stereo unspecified), -5.5%.
For the compound `O=C(O)/C=C/C(=O)NNC(=O)c1cc(O)cc(O)c1`, the displacement stood at 3.6%.
In the case of `COc1cc(/C=C(\C#N)C(=O)Nc2ccc(F)cc2)ccc1O` it was -17.3%; in that of `OC(COc1ccccc1Cl)CN1CCN(CC(O)COc2ccccc2Cl)CC1` (stereo unspecified), 8.1%.
Under `Nc1[nH]n(-c2ccccc2)c(=O)c1N=Nc1ccc2[nH]c(=O)[nH]c2c1` stands 5.1%; under `Cc1cc(C)nc(SCC(=O)Oc2ccc3oc(=O)cc(C)c3c2)n1`, -5.2%; under `CN(C)CC#CC(O)(c1ccccc1)c1ccccc1`, 4.8%.
Under `CC(C)CNC(=O)c1cccc(NC(=O)c2ccc(Cl)c([N+](=O)[O-])c2)c1` stands 13.8%.
As for `O=C(CCc1ccccc1)Nc1cccc(I)c1`, the displacement was -15.6%.
Take `O=C1c2ccc(-c3nc4ccccc4c(=O)o3)cc2C(=O)N1c1ccc(Cl)cc1`: the displacement stood at 2%.
Under `COc1ccc2occ(C(=O)c3ccc([N+](=O)[O-])cc3)c2c1` stands 9.6%.
In the case of `O=C(Cn1c2ccccc2c(=O)c2ccccc21)N/N=C/c1cc([N+](=O)[O-])ccc1N1CCCC1` it was 73.6%.
In the case of `CCCOc1ccc(C(=O)Nc2ccc(I)cc2Cl)cc1`, the displacement was 18.1%.
In the case of `COc1ccc(C(C)NC(=O)c2ccc(OC)c(OC)c2)cc1` (stereo unspecified) it was 10.1%.
Under `COc1ccc(N(CC(=O)N/N=C(\C)c2ccccc2)S(=O)(=O)c2ccccc2)cc1Cl` stands -0.9%; under `Cc1ccc(-c2nc3ccccc3s2)cc1NC(=S)NC(=O)c1ccco1`, 11%.
Under `COC(=O)CN(Cc1ccccc1)S(=O)(=O)c1ccc(OC)c(OC)c1` stands -8.1%; under `CCOC(=O)c1c(C)oc2ccc(OC(=O)c3ccc(OC)c(OC)c3)cc12`, 10.3%; under `O=C1C=C(NNC(=O)Cc2ccccc2)CCC1`, 1.2%.
